Results as given in paper PMC7364478, “FRET-based Tau seeding assay does not represent prion-like templated assembly of Tau filaments” (Molecular Neurodegeneration, 2020).

Target: the molecule itself
Test: light scattering (90° angle, 350 nm) of aggregation; 50 μM Tau protein with 12.5 μM heparin 16,000 in BES buffer pH 7.0 (20 mM BES, 25 mM NaCl), 37 °C, read at time intervals; self-assembly into aggregates or fibers

B1: Tau^RDΔK (Tau repeat domain, K18 construct, (M)[…] with deletion of K280) (domain or fragment)
chain: not shown
notes: start methionine added before Q244, printed as (M); Tau (MAPT), human, 4-repeat construct K18, […], numbers of hTau40 (2N4R, 441 residues); also called K18 ΔK280; Tau repeat domain with pro-aggregant mutation ΔK280; source: E. coli, purified as described earlier [8]
  overall extent of aggregation (light scattering), fold over Tau^RDΔK-GFP: 3 fold
